# According to PubChem BioAssay AID1508642 (National Center for Advancing Translational Sciences (NCATS), 2021):
# Screen size: about 43,000 compounds; about 200 (0.47%) were called active. Another 12% or so got no clear call; they are omitted. Calls follow the shape of the dose curve; as a rule, active = well fitted cell-killing curve with a large enough effect; inconclusive = small, poorly fitted or top-dose-only effect, or effect the other way; inactive = flat fitted curve, though single readings scatter. The list shows a part of the results.
# Experiment: Cell viability qHTS assay in S16 Pmp22-F2sN cells; also: nearly all actives have a fitted effect of over 65% in size
# Conditions: S16 Pmp22-F2sN Schwann cells viability, CellTiter-Glo, 24 h; series mostly up to 57.5 µM; activity change, negative = cytotoxicity: at the top concentration
# Procedure, shortened: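 Viability was measured by CellTiter-Glo luminescence (15 min, room temperature). This followed 24 h at 37 °C of compound exposure (23 nL pin transfer) in S16 Pmp22-F2sN Schwann cells, 500-1,000 per well.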
# % is scaled to controls: 0 for no effect and ±100 for the full control effect.
row,Structure (SMILES),"activity change, negative = cytotoxicity"
1,Cc1ccc(C)c(N2CCN(C(=O)CCS(=O)(=O)c3cc4c(cc3Cl)NC(=O)CO4)CC2)c1,inactive: -6.32%
2,CCC1CCCCN1CCCNC(=O)CN1C(=O)c2cccnc2Oc2ccc(C)cc21 (centres undefined),inactive: 1.26%
3,O=C(Nc1ccc(Br)cc1F)C1CCN(c2nc3ccccc3[nH]2)CC1,inactive: 0.15%
4,Clc1ccc2c(c1)-c1c(cnc3cc(-c4ccccc4)nn13)CO2,inactive: 20.6%
5,COc1ccc(N2CCN(C(=O)c3cnn(-c4ccc(F)cc4)c3-n3cccc3)CC2)cc1,inactive: 12.8%
6,COC(=O)COc1ccc2oc(-c3ccc(OC)cc3)cc(=O)c2c1,inactive: -2.45%
7,CC1CN(C(=O)N2CCC(C(=O)N3CCN(c4ccccc4)CC3)CC2)c2cc(Cl)ccc2O1 (centres undefined),inactive: 0.328%
8,CCOc1ccc2nc(N3CCC(C(=O)Nc4ccccc4CC)CC3)sc2c1,inactive: -5%
9,CCOc1cc2[nH]c(=O)n(CCCCC(=O)N3CCN(c4ccc(OC)cc4)CC3)c(=O)c2cc1OCC,inactive: -1.22%
10,CCOc1ccc(C(=O)Nc2nnc(S(=O)(=O)Nc3ccccc3)s2)cc1,inactive: -21.1%
11,CCCN1CCN(C(=O)Cn2c(-c3cccs3)cc3ccccc32)CC1,inactive: 9.36%
12,COCCCNC(=O)C1CCN(C(=O)c2cnn(-c3ccccc3)c2-n2cccc2)CC1,inactive: 17.7%
13,Cc1ccc(NC(=O)c2cnc(N3CCCCC3)c3ccccc23)c(C)c1,inactive: -2.91%
14,CCCCOc1ccc(C2=NC(c3cccs3)=Nc3ccc(CC)cc3N2)cc1,inactive: -2.91%
15,CC(C)CC(=O)Nc1nc2nc(-c3ccccc3)cc(=O)n2[nH]1,inactive: 0.186%
16,COC(=O)c1c(Oc2ccc(OC)cc2)nnc(-c2ccccc2)c1-c1ccccc1,inactive: -9.95%
17,Cc1ccc2c(CC(=O)Nc3ccc(S(=O)(=O)N4CCCCC4C)cc3)coc2c1 (centres undefined),inactive: -2.88%
18,Cc1ccc(CNC(=O)c2cccn2-c2nnc(N3CCCC3)s2)cc1,inactive: -0.166%
19,COc1cccc(NC(=O)CN2C(=O)CSc3ccc(S(=O)(=O)N4CCCC4)cc32)c1,inactive: -2.96%
20,Cc1ccc(N2C(=O)NC(NS(=O)(=O)c3ccccc3)(C(F)(F)F)C2=O)cc1C (centres undefined),inactive: 17.2%
21,COc1ccc(CNC(=O)CCCn2nc(C)c3sc4ccccc4c3c2=O)cc1OC,inactive: 14.6%
22,CCOc1ccccc1CNC(=O)c1ccc(N2Cc3ccccc3Oc3ncccc32)s1,inactive: -26.5%
23,Cc1cccc(NC(=O)N2CCN(C(=O)c3nsc4ccccc34)CC2)c1C,inactive: -3.23%
24,Cc1ccc(NC(=O)CSc2ncc(S(=O)(=O)c3ccc(C(C)C)cc3)c(=O)[nH]2)cc1C,inactive: 19.1%
25,Cc1ccc(CNC(=O)c2nc(SCc3ccc(F)cc3)ncc2Cl)cc1,inactive: 13.6%

row,Structure (SMILES),"activity change, negative = cytotoxicity"
1,Cc1nn2c(=O)cc(COC(=O)c3cccc(NC(=O)COc4ccccc4Cl)c3)nc2s1,inactive: 12.3%
2,Cc1ccc(C(=O)c2cn(Cc3cccc(C)c3)c3nc(C)ccc3c2=O)cc1,inactive: -16.3%
3,COC(=O)c1cc(S(=O)(=O)N2CCN(c3ccc(OC)cc3)CC2)c[nH]1,inactive: -1.49%
4,COc1ccc(S(=O)(=O)n2nc(C)c(S(=O)(=O)N3CCCCCC3)c2C)cc1,inactive: -8.85%
5,Cc1cc(C)n2c(Nc3ccc4c(c3)OCCO4)c(-c3ccc(Cl)cc3)nc2n1,inactive: -9.19%
6,COc1ccc(CNC(=O)CCC2N=C3c4ccccc4N=C(SCc4cccc(F)c4)N3C2=O)cc1 (centres undefined),inactive: -20.6%
7,CC(=O)N1CCCc2cc(S(=O)(=O)NCc3cccc(C)c3)ccc21,inactive: -11.8%
8,CCn1c(=O)c2cc(C(=O)NCCCOC)sc2c2ccccc21,inactive: -20.8%
9,Cc1cc(C)n(-c2nc3ccccc3nc2Nc2ccc(Cl)cc2Cl)n1,inactive: -2.02%
10,O=c1c2cnn(-c3ccc(F)cc3)c2ncn1Cc1cccc(Cl)c1,inactive: 4.58%
11,CCCN(CCC)C(=O)Cn1nnc2sc(-c3ccccc3)cc2c1=O,inactive: 9.69%
12,O=C(CCCCn1c(=O)c2ccccc2n(Cc2ccccc2Cl)c1=O)NCc1ccc2c(c1)OCO2,inactive: 28.6%
13,CCNc1ccc(-c2nc(-c3ccccn3)no2)cc1[N+](=O)[O-],inactive: -2.85%
14,Cc1cc(NC(=O)COCc2cc(-c3ccc(F)cc3)on2)ccc1Br,inactive: 1.48%
15,Cc1ccc(Nc2c(-c3ccc(Cl)cc3)nc3sccn23)c(C)c1,inactive: 28.2%
16,COc1cccc(N2CCN(C(=O)CCCn3c(=O)[nH]c4ccc(Br)cc4c3=O)CC2)c1,inactive: -14.3%
17,CCOc1ccc(CNC(=O)c2ccc3nc(CC)c(CC)nc3c2)cc1,inactive: 3.02%
18,Cc1ccc(C)c(NC(=O)N2CCC(CN3CCOCC3)CC2)c1,inactive: -0.984%
19,CCCn1c2ccccc2c2cnn(CC(=O)N3CCN(c4ccccc4F)CC3)c(=O)c21,inactive: 2.23%
20,CCOc1ccc(CCNS(=O)(=O)c2c(C)nc3scc(C)n3c2=O)cc1OCC,inactive: -0.132%
21,O=c1ccc2cc(S(=O)(=O)NCc3ccc(Br)cc3)ccc2[nH]1,inactive: 9.56%
22,Cc1ccc(NC(=O)CSc2nccn2Cc2ccco2)cc1Cl,inactive: -14.1%
23,CCC(=O)N1CCc2cc(S(=O)(=O)NC(CC(C)C)C(=O)NCCc3cccc(C)c3)ccc21 (centres undefined),inactive: -16.3%
24,COc1cccc(NC(=O)CSCc2cc(=O)c3ccc(C)c(C)c3[nH]2)c1,inactive: 9.67%
